Earlier results on 4 compounds are cited in article PMC10741027, “Risk Assessment of Psychotropic Drugs on Mitochondrial Function Using In Vitro Assays” (Biomedicines, 2023).

pIC50: −log10 of the molar value. Like-named read-outs stand apart in the source and are kept apart here.

The test system of one series is CII-linked respiration. To be noted: read-out: CII-linked respiration IC50; pig brain mitochondria; cited from earlier work.
In series [1] the test system is CI-linked respiration. To be noted: read-out: CI-linked respiration IC50; pig brain mitochondria; cited from earlier work.
The next series addresses F1F0-ATPase. To be noted: read-out: F1F0-ATPase activity IC50; submitochondrial particles; cited from earlier work.
The subject of series [2] is CI-linked respiration. To be noted: read-out: CI-linked respiration IC50; isolated rat brain mitochondria; cited from earlier work.
The subject of a further series is ATP synthase. The conditions noted are these: read-out: concentration giving 50% of the effect on ATP synthase; non-competitive, binding to membrane F0 component; cited from earlier work.
The next series relates to respiratory CI. Also on record: method as in PMID 9309697. To be noted: human brain cortex; read-out: CI inhibition IC50; cited from earlier work.

Regarding `O=C1CCc2ccc(OCCCCN3CCN(c4cccc(Cl)c4Cl)CC3)cc2N1` [Aripiprazole], the pIC50 in the series with CII-linked respiration is 4.49; in the series with CI-linked respiration [1], 4.89.

Take `CNCCC(Oc1ccc(C(F)(F)F)cc1)c1ccccc1` (stereo not shown) [Fluoxetine]: the pIC50 was 4.06 in the series with CI-linked respiration [1], 4.10 at F1F0-ATPase, 3.82 in the series with CI-linked respiration [2] and 4.22 with ATP synthase.

For `O=C(CCCN1CCC(O)(c2ccc(Cl)cc2)CC1)c1ccc(F)cc1` [Haloperidol], the pIC50 was 4.19 in the series on CI-linked respiration [1] and 4.00 with respiratory CI.

In the case of `OCCOCCN1CCN(C2=Nc3ccccc3Sc3ccccc32)CC1` [Quetiapine], the pIC50 with CII-linked respiration was 4.31; in the series on CI-linked respiration [1], 3.37.
